We go through one molecule from the supplement of paper PMC8728848.

This is one part of the list.

Test in all cases: glycan array binding signal (z-score within array); higher = stronger binding
What all share (details): glycan notation: IUPAC condensed, linker removed

In experiment [1] the target is Neu5Gc(a2-3)Gal(b1-4)GlcNAc(b1-3)Gal(b1-4)GlcNAc(b1-2)Man(a1-3)[Neu5Gc(a2-3)Gal(b1-4)GlcNAc(b1-3)Gal(b1-4)GlcNAc(b1-2)Man(a1-6)]Man(b1-4)GlcNAc(b1-4)GlcNAc. In outline: (§1)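 Glycan array data came from 3228 arrays in the Consortium for Functional Glycomics database, and only arrays with an available protein sequence were kept. Glycan names were put into IUPAC-condensed notation, and columns mapping to the same glycan were averaged. The binding signal is a within-array Z-score, averaged across arrays of one protein sequence run at different concentrations or buffers and across linkers. A negative Z-score can be read as non-binding.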

For experiment [2], the target named is Neu5Gc(a2-3)Gal(b1-4)[Fuc(a1-3)]GlcNAc. The method in brief: as §1
Experiment [3] has as its target Neu5Gc(a2-3)Gal(b1-4)[Fuc(a1-4)]GlcNAc. In outline:
as §1

Experiment [4] addresses Neu5Gc(a2-6)Gal(b1-4)GlcNAc. The method in brief: as §1
In another experiment the target is Neu5Gc(a2-6)GalNAc. In outline: as §1
Experiment [5] deals with Neu5Gc(a2-8)Neu5Ac(a2-3)Gal(b1-4)GlcNAc. The method in brief: as §1
The target in experiment [6] is Neu5Gc(a2-8)Neu5Gc(a2-3)Gal(b1-4)GlcNAc. The method in brief: as §1
The target in experiment [7] is Neu5Gc(a2-8)Neu5Gc(a2-3)Gal(b1-4)GlcNAc(b1-3)Gal(b1-4)GlcNAc. The method in brief: as §1
Experiment [8] deals with Neu5Gc(a2-8)Neu5Gc(a2-6)Gal(b1-4)GlcNAc. In outline:
as §1

For experiment [9], the target named is Neu5Gc(b2-6)Gal(b1-4)GlcNAc. In outline:
as §1

B1: Gal 2 (Homo sapiens), P05162 (protein)
chain: MTGELEVKNMDMKPGSTLKITGSIADGTDGFVINLGQGTDKLNLHFNPRFSESTIVCNSLDGSNWGQEQREDHLCFSPGSEVKFTVTFESDKFKVKLPDGHELTFPNRLGHSHLSYLSVRGGFNMSSFKLKE
As to B1, the “glycan array binding signal (z-score)” value in experiment [1] was -0.184; in experiment [2], -0.212; in [3], -0.423; in experiment [4] it was -0.227; with Neu5Gc(a2-6)GalNAc it was -0.263; in [5] it was -0.21. Moreover, the “glycan array binding signal (z-score)” value in [6] is -0.251; in [7], -0.347; in experiment [8] it was -0.115; in [9] it was -0.217.
